{
  "source": "PubChem BioAssay AID504339",
  "about": "(National Center for Advancing Translational Sciences (NCATS), 2011)",
  "note": "In all, about 390,000 compounds went through this assay and about 17,000 (4.4%) were called active. The inconclusive results got no clear call from the source; some entries with a clear call stand among them for comparison. Calls come from the whole dose curve; as a rule, active = well fitted inhibition curve with a large enough effect; inconclusive = small, poorly fitted or top-dose-only effect; inactive = no such curve, though single readings can be large or run the other way. Where the call is inconclusive, the potency comes from a doubtful curve fit. % is set by controls: 0 for no effect and ±100 for the full control effect; potency is the fitted concentration of half-maximal effect; tags give direction and shape of the fitted curve.",
  "data": [
    {"target": "Lysine-specific demethylase 4A (Homo sapiens) (UniProt O75164)", "sequence (O75164 whole entry, looked up, the tested form may be a part)": "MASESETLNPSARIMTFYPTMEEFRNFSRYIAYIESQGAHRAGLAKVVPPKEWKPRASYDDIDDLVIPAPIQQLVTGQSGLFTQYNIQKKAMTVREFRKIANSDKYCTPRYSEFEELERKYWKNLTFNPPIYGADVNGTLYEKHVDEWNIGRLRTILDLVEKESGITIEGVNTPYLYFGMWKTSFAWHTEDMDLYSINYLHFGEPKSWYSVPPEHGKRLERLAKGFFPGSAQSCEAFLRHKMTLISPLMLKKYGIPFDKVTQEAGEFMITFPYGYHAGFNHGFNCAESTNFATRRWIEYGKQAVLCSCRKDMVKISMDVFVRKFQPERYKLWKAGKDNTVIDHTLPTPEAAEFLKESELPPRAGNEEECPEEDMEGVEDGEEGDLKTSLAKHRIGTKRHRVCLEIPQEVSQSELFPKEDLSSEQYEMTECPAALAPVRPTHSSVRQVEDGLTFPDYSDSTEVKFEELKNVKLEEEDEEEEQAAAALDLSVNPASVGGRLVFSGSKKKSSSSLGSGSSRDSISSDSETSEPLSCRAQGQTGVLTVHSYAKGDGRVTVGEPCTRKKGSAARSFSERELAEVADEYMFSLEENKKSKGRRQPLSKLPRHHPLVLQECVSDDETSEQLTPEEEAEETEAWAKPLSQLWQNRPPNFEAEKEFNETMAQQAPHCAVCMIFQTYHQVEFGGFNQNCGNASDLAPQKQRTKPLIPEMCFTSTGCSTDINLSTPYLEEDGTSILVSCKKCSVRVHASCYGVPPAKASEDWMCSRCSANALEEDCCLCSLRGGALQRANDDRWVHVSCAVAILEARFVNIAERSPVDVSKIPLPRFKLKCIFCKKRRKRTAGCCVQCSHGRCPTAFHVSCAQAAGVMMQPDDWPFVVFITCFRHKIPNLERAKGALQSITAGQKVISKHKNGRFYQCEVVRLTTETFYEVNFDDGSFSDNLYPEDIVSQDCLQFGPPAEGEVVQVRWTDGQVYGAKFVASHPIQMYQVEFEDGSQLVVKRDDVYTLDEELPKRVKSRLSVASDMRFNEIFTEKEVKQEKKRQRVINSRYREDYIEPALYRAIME", "assay": "qHTS Assay for Inhibitors of JMJD2A-Tudor Domain; note: nearly all actives have a fitted effect of over 50% in size", "settings": "AlphaScreen JMJD2A-Tudor / H3K4me3 peptide binding; activity change, negative = inhibition: at 114 µM (top of the series)", "values": [
      {"smiles": "CC(C)c1ccc(S(=O)(=O)/N=C2/C=C(Sc3ncn[nH]3)C(=O)c3ccccc32)cc1", "Potency": "active: 7.08 µM"},
      {"smiles": "CCC[N+]1(CC#CC2(O)CCCCC2)CCOCC1", "Potency": "inconclusive: 25.1 µM [inhibitor, single point]"},
      {"smiles": "COc1cc(-c2n[nH]c(=S)n2/N=C/c2cccn2C)cc(OC)c1OC", "Potency": "active: 1.26 µM"},
      {"smiles": "CCC(c1nnc(SCC(=O)Nc2nnc(-c3ccccc3)o2)o1)N(C)C", "note": "(centres undefined)", "Potency": "inconclusive: 70.8 µM [inhibitor, partial curve, poor fit]"},
      {"smiles": "COc1ccc(NC(=O)c2cc(-c3ccco3)nc3ccccc23)cc1S(=O)(=O)N1CCOCC1", "Potency": "inconclusive: 4.47 µM [inhibitor, single point]"},
      {"smiles": "O=S(=O)(Nc1ccncc1)c1ccccc1", "Potency": "inactive"},
      {"smiles": "CCOc1ccc(C=NNc2ccc(S(=O)(=O)Nc3ccccc3C(=O)O)cc2[N+](=O)[O-])cc1OC", "Potency": "active: 20 µM"},
      {"smiles": "COC(=O)c1nc2n(n1)C(c1cc(OC)ccc1OC)C(C(=O)OC1CCCCC1)=C(C)N2", "note": "(centres undefined)", "Potency": "inconclusive: 89.1 µM [inhibitor, single point]"},
      {"smiles": "CCN(CC)CCn1c(NCc2nc3ccccc3n2Cc2ccccc2)nc2ccccc21", "Potency": "inconclusive: 63.1 µM [inhibitor, partial curve, poor fit]"},
      {"smiles": "COCCCN(C(=S)NC(=O)c1ccc(Br)cc1)c1c(N)n(Cc2ccccc2)c(=O)[nH]c1=O", "Potency": "inactive"},
      {"smiles": "CC1(C)CCC[C@]2(C)[C@H]3Cc4cc(O)ccc4O[C@]3(C)CC[C@@H]12", "Potency": "inconclusive: 35.5 µM [inhibitor, full curve]"},
      {"smiles": "Cc1ccc(C(=O)c2cc(C)sc2N)cc1", "Potency": "inconclusive: 35.5 µM [inhibitor, partial curve]"},
      {"smiles": "CC1CN(CC(O)COc2ccc(C(=O)c3ccccc3)cc2)CC(C)O1", "note": "(centres undefined)", "Potency": "inactive"},
      {"smiles": "COC(=O)c1cc(NC(=O)c2ccc([N+](=O)[O-])cc2)c(=O)oc1C", "Potency": "inactive"},
      {"smiles": "CN(C)c1ccc(CN2CCC(C(N)=O)CC2)cc1", "Potency": "active: 22.4 µM"},
      {"smiles": "CC(=O)Nc1cccc(CCc2nc3ccccc3[nH]2)c1", "Potency": "inconclusive: 12.6 µM [inhibitor, partial curve]"},
      {"smiles": "COc1ccc(CN(Cc2ccccc2)C(=O)c2ccco2)cc1COc1ccc(NC(C)=O)cc1", "Potency": "inconclusive: 35.5 µM [inhibitor, partial curve]"},
      {"smiles": "Cc1ccccc1-n1c(SCC(=O)N2CCN(c3ccccc3)CC2)nnc1-c1ccncc1", "Potency": "inactive"},
      {"smiles": "CC1CC(C)CN(CC(=O)Nc2cc(S(=O)(=O)N3CCOCC3)ccc2N2CCCC2)C1", "note": "(centres undefined)", "Potency": "inactive"},
      {"smiles": "COC(=O)c1ccc(-n2nnc(-c3nc(-c4ccc5c(c4)OCO5)no3)c2C)cc1", "Potency": "inconclusive: 89.1 µM [inhibitor, single point]"},
      {"smiles": "O=C1COCCN1", "Potency": "inactive"},
      {"smiles": "Cc1cc(Br)ccc1NC(=O)CCS(=O)(=O)c1cccc2nsnc12", "Potency": "inactive"},
      {"smiles": "CCCNc1c(NC(=O)c2cccs2)c(=O)oc2ccccc12", "Potency": "inactive"},
      {"smiles": "CCOC(=O)c1ccc(NC(=O)C2CCCN(c3ccc(Sc4ccc(C)cc4)nn3)C2)cc1", "note": "(centres undefined)", "Potency": "inactive"},
      {"smiles": "CC(=O)O[C@]1(C(C)=O)CC[C@H]2[C@@H]3C=CC4=CC(=O)C=C[C@]4(C)[C@H]3CC[C@@]21C", "Potency": "inactive"},
      {"smiles": "CCCOC(=O)c1ccc(Oc2c(-c3ccc(O)cc3O)n[nH]c2C)cc1", "Potency": "inconclusive: 56.2 µM [inhibitor, partial curve]"},
      {"smiles": "O=C(NCCc1ccccc1F)C1CCC(=O)N(Cc2ccccc2F)C1", "note": "(centres undefined)", "Potency": "inconclusive: 39.8 µM [inhibitor, single point]"},
      {"smiles": "O=C(NCc1ccccc1)c1ccc(NC(=O)c2nsc3ccccc23)cc1", "Potency": "inactive"},
      {"smiles": "CCC(C)[C@H]1CNCCN1CCc1cc(C(F)(F)F)cc(C(F)(F)F)c1", "note": "(some centres undefined)", "Potency": "inactive"},
      {"smiles": "COc1ccc(CNC(=O)CCC(=O)N2CC3CCCN3c3ccccc32)cc1", "note": "(centres undefined)", "Potency": "inconclusive: 56.2 µM [inhibitor, partial curve]"},
      {"smiles": "O=C(O)CNC(=O)CCn1nnc2ccccc2c1=O", "activity change, negative = inhibition": "inactive: -6.62% [at 11.4 µM]"},
      {"smiles": "CCCNC(=O)c1ccc(-n2c(-c3ccccc3)cc3c2CCCCC3)cc1", "Potency": "inconclusive: 79.4 µM [inhibitor, single point]"},
      {"smiles": "CC(=O)N1CCCc2cc(S(=O)(=O)N3CCC(C(=O)NCc4ccc(N(C)C)cc4)CC3)ccc21", "Potency": "inconclusive: 28.2 µM [inhibitor, partial curve]"},
      {"smiles": "COc1cc(CN(CC2CCCO2)C(=O)c2ccc(F)cc2)cc(OC)c1OC", "note": "(centres undefined)", "Potency": "inactive"},
      {"smiles": "Cc1nn(C)cc1/C=N/NC(=S)Nc1ccccc1", "Potency": "inconclusive: 56.2 µM [inhibitor, partial curve]"},
      {"smiles": "O=C1CCc2nc3ccccc3c(=O)n2N1", "Potency": "inconclusive: 25.1 µM [inhibitor, single point]"},
      {"smiles": "CC1CCN(C2=C(NS(=O)(=O)c3ccc(Br)cc3)C(=O)c3ccccc3C2=O)CC1", "Potency": "active: 8.91 µM"},
      {"smiles": "CC(C)NC(=O)c1cccc2c1-c1ccccc1C2=O", "Potency": "inactive"},
      {"smiles": "O=C(Nc1cc(S(=O)(=O)N2CCOCC2)ccc1N1CCOCC1)c1cccs1", "Potency": "active: 89.1 µM"},
      {"smiles": "Cc1[nH]c2ccccc2c1/C=N/Nc1cccc(C(=O)O)c1", "Potency": "inconclusive: 63.1 µM [inhibitor, partial curve]"},
      {"smiles": "Cc1nn(C)c(C(=O)Nc2ccn(C34CC5CC(CC(C5)C3)C4)n2)c1[N+](=O)[O-]", "Potency": "inconclusive: 56.2 µM [inhibitor, partial curve]"},
      {"smiles": "O=[N+]([O-])c1cccc(COc2ccc(CN3CCOCC3)cc2)c1", "Potency": "inconclusive: 56.2 µM [inhibitor, partial curve]"},
      {"smiles": "Cc1cccc(N2CCN(C(=O)CSCc3ccc(F)cc3)CC2)c1C", "Potency": "inactive"},
      {"smiles": "O=c1c2cc(N3CCOCC3)ccc2[nH]c(=S)n1CCN1CCCC1", "Potency": "inconclusive: 56.2 µM [inhibitor, partial curve]"},
      {"smiles": "Cc1ccc(/C=N/n2c(C)cc(C)c(C#N)c2=O)cc1", "Potency": "inactive"},
      {"smiles": "Nc1ccc(OCCc2ccccc2)cc1", "Potency": "inconclusive: 50.1 µM [inhibitor, partial curve]"},
      {"smiles": "Cn1nc(C(=O)Nc2cccc(S(=O)(=O)N3CCCCC3)c2)c2ccccc2c1=O", "Potency": "inactive"},
      {"smiles": "Cc1ccc(-c2nnc(SC(C)C(=O)NCC3CCCO3)nc2-c2ccc(C)cc2)cc1", "note": "(centres undefined)", "Potency": "inconclusive: 56.2 µM [inhibitor, partial curve]"},
      {"smiles": "N#Cc1ccc(OC2=NS(=O)(=O)c3ccccc32)cc1", "Potency": "inactive"},
      {"smiles": "CN(C)c1ccc(CNC(=O)c2cc3cc(S(=O)(=O)N4CCCCC4)ccc3n2C)cc1", "Potency": "inconclusive: 11.2 µM [inhibitor, full curve]"},
      {"smiles": "O=C(CN1C(=O)C2CCCCN2c2ccc(C(=O)N3CCCC3)cc21)NCc1cccc(Cl)c1", "note": "(centres undefined)", "Potency": "inactive"},
      {"smiles": "CC(c1ccon1)N(C)Cc1cn[nH]c1-c1ccc(-c2ccccc2)cc1", "note": "(centres undefined)", "Potency": "inconclusive: 63.1 µM [inhibitor, single point]"},
      {"smiles": "O=C1c2cccnc2C(Nc2ccc(Br)cc2)N1Cc1cccs1", "note": "(centres undefined)", "Potency": "inconclusive: 44.7 µM [inhibitor, partial curve, poor fit]"},
      {"smiles": "O=C(COc1ccc2cc(Br)ccc2c1Br)N1CCOCC1", "Potency": "inactive"},
      {"smiles": "COc1ccc(Cn2nnnc2C(C(C)C)N2CCc3ccccc32)cc1", "note": "(centres undefined)", "Potency": "inconclusive: 50.1 µM [inhibitor, partial curve]"},
      {"smiles": "Cc1ccc(Cn2c(-c3ccccc3)nc3ccccc32)cc1", "Potency": "inactive"},
      {"smiles": "COc1ccccc1N1CCN(c2csc3ccc(Cl)cc3c2=O)CC1", "Potency": "inactive"},
      {"smiles": "Cc1cccc(C2c3[nH]c4ccccc4c3CCN2Cc2cccn2-c2ncccn2)c1", "note": "(centres undefined)", "Potency": "active: 50.1 µM"},
      {"smiles": "N#Cc1c(NC(=O)Cn2cnc3ccccc3c2=O)oc(-c2ccccc2)c1-c1ccccc1", "Potency": "inconclusive: 39.8 µM [inhibitor, partial curve]"},
      {"smiles": "COCCN=c1scc(-c2ccc3c(c2)NC(=O)CO3)n1/N=C(\\C)c1ccc(O)cc1", "Potency": "active: 22.4 µM"},
      {"smiles": "CCn1ccc2cc(S(=O)(=O)N3CCC(C(=O)NCc4cccc(C)c4)CC3)ccc21", "Potency": "inactive"},
      {"smiles": "COc1cccc(-c2cc(N)nn2C(=O)Nc2ccc(Cl)cc2)c1", "Potency": "inconclusive: 56.2 µM [inhibitor, partial curve]"},
      {"smiles": "O=C(CCc1ccccc1)NC(=S)Nc1ccccc1[N+](=O)[O-]", "Potency": "inconclusive: 44.7 µM [inhibitor, partial curve]"},
      {"smiles": "OCC1(Cc2ccccc2)CCCN(Cc2ccc(-c3ccco3)cc2)C1", "note": "(centres undefined)", "Potency": "inconclusive: 50.1 µM [inhibitor, partial curve]"},
      {"smiles": "O=S1(=O)C=CC(Sc2nc3ccccc3[nH]2)C1", "note": "(centres undefined)", "Potency": "inconclusive: 50.1 µM [inhibitor, partial curve]"},
      {"smiles": "O=C(CSc1ccccc1)N1CCN(c2ccccn2)CC1", "Potency": "inconclusive: 17.8 µM [inhibitor, partial curve]"},
      {"smiles": "O=C(CNS(=O)(=O)c1ccc(Cl)cc1)NC1CCCCC1", "Potency": "inactive"},
      {"smiles": "CCNC(=O)Cn1c(-c2cccs2)cc2ccccc21", "Potency": "inactive"},
      {"smiles": "CCC(=O)Nc1nc2nc(-c3ccccc3)cc(=O)n2[nH]1", "Potency": "inconclusive: 39.8 µM [inhibitor, single point]"},
      {"smiles": "COC(=O)c1ccc(CC(=O)c2nc3ccccc3s2)cc1", "Potency": "inconclusive: 79.4 µM [inhibitor, single point]"},
      {"smiles": "CC(C)CC1c2[nH]c3ccccc3c2CCN1C(=O)CCC(=O)N(C)C", "note": "(centres undefined)", "Potency": "inconclusive: 63.1 µM [inhibitor, partial curve]"},
      {"smiles": "O=C(CSc1nnc2c(n1)[nH]c1ccc(F)cc12)OCc1ccccc1", "Potency": "inconclusive: 63.1 µM [inhibitor, partial curve, poor fit]"},
      {"smiles": "Nc1nc(NCCCN2CCOCC2)nc(Nc2cccc(Cl)c2)c1[N+](=O)[O-]", "Potency": "inconclusive: 35.5 µM [inhibitor, partial curve]"},
      {"smiles": "Cc1ccn(CC(=O)N/N=C/c2cc([N+](=O)[O-])ccc2O)n1", "Potency": "active: 22.4 µM"}
    ]}
  ]
}
